# Out of some 310,000 compounds screened, about 2,200 (0.71%) showed an effect of 50% or more. The effect is printed as a negative number. The list shows a part of the results.
# Target: human ether-à-go-go-related gene (hERG) potassium channel (human, UniProt Q12809)
# Assay: primary screen, population patch clamp on CHO cells stably expressing hERG
# Chain of human ether-à-go-go-related gene (hERG) potassium channel (Q12809 whole entry, looked up): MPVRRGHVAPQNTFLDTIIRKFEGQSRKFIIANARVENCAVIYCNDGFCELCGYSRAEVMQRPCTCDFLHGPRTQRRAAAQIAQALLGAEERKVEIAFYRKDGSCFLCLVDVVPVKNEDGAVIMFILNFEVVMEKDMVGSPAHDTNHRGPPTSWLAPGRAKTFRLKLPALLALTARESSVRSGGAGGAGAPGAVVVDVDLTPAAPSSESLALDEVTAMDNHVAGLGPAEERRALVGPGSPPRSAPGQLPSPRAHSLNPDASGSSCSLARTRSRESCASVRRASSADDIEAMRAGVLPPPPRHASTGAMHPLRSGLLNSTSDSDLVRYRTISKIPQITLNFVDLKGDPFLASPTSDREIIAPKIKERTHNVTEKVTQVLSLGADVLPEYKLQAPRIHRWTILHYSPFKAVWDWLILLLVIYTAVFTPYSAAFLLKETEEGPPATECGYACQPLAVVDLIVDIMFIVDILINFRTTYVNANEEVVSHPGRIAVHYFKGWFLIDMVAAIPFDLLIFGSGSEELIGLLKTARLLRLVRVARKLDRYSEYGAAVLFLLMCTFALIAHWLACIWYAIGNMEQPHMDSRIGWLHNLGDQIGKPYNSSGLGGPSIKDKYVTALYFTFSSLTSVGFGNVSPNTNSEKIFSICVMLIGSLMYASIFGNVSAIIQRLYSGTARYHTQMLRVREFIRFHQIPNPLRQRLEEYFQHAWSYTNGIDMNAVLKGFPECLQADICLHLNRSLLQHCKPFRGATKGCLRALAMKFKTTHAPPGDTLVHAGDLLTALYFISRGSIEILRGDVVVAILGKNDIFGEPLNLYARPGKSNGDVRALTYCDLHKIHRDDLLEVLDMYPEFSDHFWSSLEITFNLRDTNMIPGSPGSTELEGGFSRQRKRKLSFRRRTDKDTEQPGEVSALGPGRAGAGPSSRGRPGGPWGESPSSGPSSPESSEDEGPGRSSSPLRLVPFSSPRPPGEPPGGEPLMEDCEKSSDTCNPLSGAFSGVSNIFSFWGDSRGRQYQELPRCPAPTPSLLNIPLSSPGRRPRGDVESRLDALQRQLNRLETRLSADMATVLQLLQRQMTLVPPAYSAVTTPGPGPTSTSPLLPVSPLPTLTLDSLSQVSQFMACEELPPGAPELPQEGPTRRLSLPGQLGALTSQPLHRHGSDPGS
row,Structure (SMILES),"hERG current change (%, negative = inhibition) at 1uM [%]"
1,Cc1ccoc1C(=O)Nc1ccc(CC(=O)O)cc1,7.5
2,COCCCNCCCCOc1cccc(Br)c1.O=C(O)C(=O)O,-3.01
3,COc1cc(NC(=O)c2cccnc2)c(Cl)cc1NC(=O)c1ccccc1,10
4,N#Cc1cccnc1Oc1ccccc1,10.4
5,CCOc1ccc(NC(=O)Cn2c(=O)n(CC3CCCO3)c(=O)c3ccccc32)cc1 (stereo not drawn),-0.549
6,COc1cccc(/C=N/NC(=O)CNC(=O)c2ccc(S(=O)(=O)N3CCCC3)cc2)c1OC,16.1
7,O=C(CSc1ncn[nH]1)NCCC(c1ccccc1)c1ccccc1,9.59
8,COc1cc(C(O)P(=O)(OCC(C)C)OCC(C)C)cc(OC)c1OC (stereo not drawn),18.8
9,Cc1cc(C)c2nc(SCC#N)cc(C)c2c1,13.4
10,O=C(Nc1c(C(=O)O)[nH]c2ccccc12)c1cccc(C(F)(F)F)c1,9.75
11,COC(=O)[C@H](CCSC)NC(=O)Nc1ccc(C)c(C)c1,-45.3
12,O=C(c1ccc2c(c1)OCO2)N(CC1CCCO1)C1(C(=O)NC2CCCC2)CCCCC1 (stereo not drawn),14.8
13,Cc1ccc2c(c1)C1CN(C)CCC1N2C(=O)/C=C/c1ccc2c(c1)OCO2 (stereo not drawn),-1.56
14,Cc1ccccc1C(=O)Nc1nnc(SCC(=O)NC2CC2)s1,5.37
15,O=C(CNC(=O)c1ccc(Br)o1)NCC1CCCO1 (stereo not drawn),-1.84
16,O=C(NC1CCN(C(=O)Nc2ccccc2Cl)CC1)c1ccco1,11.7
17,Cc1ccc2nc(N(CCCN(C)C)C(=O)COc3ccc(Cl)cc3)sc2c1.Cl,7.58
18,CC(=O)Nc1ccc(CN2CCC(n3nccc3NC(=O)CCc3ccccc3)CC2)cc1,11.7
19,CCOC(=O)Cc1cc(=O)n(-c2nc3ccccc3s2)[nH]1,0.918
20,O=C1CCN(S(=O)(=O)c2ccccc2)CCN1CCOCc1ccc(Cl)cc1,5.64
21,Cc1c(Cl)cccc1NC(=O)C1CC2CCC1C2 (stereo not drawn),11.1
22,Cc1ccc(NC(=O)c2ccc(S(=O)(=O)N3CCCCCC3)cc2)nc1,7.73
23,CNC(=O)Nc1cc(C(F)(F)F)cc(C(F)(F)F)c1,12.7

row,Structure (SMILES),"hERG current change (%, negative = inhibition) at 1uM [%]"
1,C/C(CC(=O)NCCCN1CCOCC1)=N\NC(=O)COc1cccc2ccccc12,5.72
2,CC(C)=C1SC(N2CCN(Cc3ccccc3)CC2)=NC1=O,6.15
3,O=C1CCC(=O)N1CC(=O)N1c2ccccc2Sc2ccccc21,10.1
4,Cc1ccc(S(=O)(=O)N2CC=C(c3c(C)n(C)c4ccccc34)CC2)cc1,14.1
5,O=C(Cc1c(F)cccc1Cl)Nc1cc(S(=O)(=O)N2CCCCC2)ccc1N1CCOCC1,-27.3
6,O=C(Cc1coc2ccc3ccccc3c12)N1CCCC1,14.6
7,COc1ccc(CN(CC(=O)NC2CCCC2)C(=O)CCC(=O)Nc2nccs2)cc1,9.78
8,CC(=O)Nc1ccc(OCC(O)CN2CCCCC2C)cc1.Cl (stereo not drawn),13.2
9,CCS(=O)(=O)c1ncc(Cl)c(C(=O)Nc2ccc(S(=O)(=O)N3CCCC(C)C3)cc2)n1 (stereo not drawn),13
10,COc1cccc(CNC(=O)c2ccncc2)c1,18.6
11,CC(C)(C)N(CC#CCC1(O)c2ccccc2-c2ccccc21)CCO,16.9
12,COc1ccc(CCNC(=O)CSc2nnnn2Cc2ccc3c(c2)OCO3)cc1OC,3.77
13,CCc1ccccc1Nc1nc(N)nc(COC(=O)CCNS(=O)(=O)c2ccccc2)n1,5.16
14,Cc1cc(NC(=O)c2ccoc2C)no1,6.87
15,CCCOc1ccc(N2C(=O)CC(SCc3nc4ccccc4[nH]3)C2=O)cc1 (stereo not drawn),-7.42
16,COc1cccc(OC2OC3COC(C)(C)OC3C(O)C2NC(C)=O)c1 (stereo not drawn),7.13
17,O=[N+]([O-])c1ccc(NCCOc2ccccc2Cl)nc1,10.7
18,CCOC(=O)C1(Cc2cccc(F)c2)CCN(C(=O)Cn2cnnn2)CC1,8.16
19,COC(=O)Cn1c(C(=O)N2CCCC2)cc2c1C[C@H]1CN(C(=O)c3ccccc3)[C@@](Cc3ccc(F)cc3)(C(=O)OC)[C@@H]21,-12.9
20,Cc1ccccc1OCCOC(=O)c1c(-c2ccccc2)noc1C,7.11
21,CSCCC(NC(N)=O)C(=O)Nc1ccc(C)cc1 (stereo not drawn),15.3
22,Cc1cc(-n2nc(C)cc2C)nc(NS(=O)(=O)c2ccccc2Cl)n1,14
23,CCN(C(=O)CSc1ncccc1C(=O)O)C1CCCCC1,22.2

row,Structure (SMILES),"hERG current change (%, negative = inhibition) at 1uM [%]"
1,Cc1cc(C(=O)N(C)C2CCCCC2)no1,8.87
2,O=C(CN1C(=O)COc2ccccc21)NCCCN1CCCCC1,12.1
3,NC(=O)C1CCN(c2oc(-c3ccccc3)nc2S(=O)(=O)c2ccc(Br)cc2)CC1,1.61
4,CCNC(=O)C1CC(=O)N(Cc2ccc3c(c2)OCO3)C(=Nc2ccc(OCC)cc2)S1 (stereo not drawn),1.71
5,Cc1ccccc1[C@@]1(C)ON(c2ccccc2C(F)(F)F)C1=O,7.64
6,CCOC(=O)N1CCN(C(=O)c2c[nH]c3ccc(S(=O)(=O)N(C)c4ccc(OCC)cc4)cc3c2=O)CC1,-8.3
7,COc1nc(N=C(N)N)nc2c(C)cccc12,-1.54
8,CNC(=O)c1c(NC(=O)C2=COCCO2)sc(C)c1C,18.6
9,CCCCn1c(N)c(N(CC(C)C)C(=O)c2oc3ccc(Br)cc3c2C)c(=O)[nH]c1=O,0.954
10,O=C(NC1=NCCS1)c1cccc(S(=O)(=O)N2CCOCC2)c1,6.73
11,N#Cc1ccc(C23CC4(C2)[C@H](CN(Cc2ccc(-c5ccccc5)cc2)[C@@H]4c2ccccc2)C3c2ccccc2)cc1 (stereo partly drawn),12.7
12,O=C(O)/C=C/C(=O)Nc1ccc2c(c1)NC(=O)CO2,10.4
13,O=C1CC(c2ccccc2Cl)=NN(c2ncnc3ccccc23)C1=O,14.8
14,C=C(C(=O)c1ccccc1)C(C)C(=C)C(=O)c1ccccc1,13.4
15,CCC1Sc2ccccc2N(CC(=O)NC2CCCCC2)C1=O (stereo not drawn),2.42
16,Cc1oc2c(CN3CCOCC3)c(O)ccc2c(=O)c1-c1ccc(Br)cc1,4.7
17,CCCCn1c(=O)c(C(C)=O)c(O)c2ccccc21,5.59
18,c1ccc(C(c2ccccc2)N2CCN(c3nc4ccccc4n4cnnc34)CC2)cc1,5.48
19,CCOC(=O)c1c(NC(=O)CN2CCCCC2)sc(C)c1C,12.4
20,O=C(COC(=O)Cc1ccccc1F)Nc1cc(S(=O)(=O)N2CCOCC2)ccc1N1CCCC1,-0.931
21,Nc1ccccc1OCCOCCOCCOc1ccccc1N,5.42
22,CCC(C)NC(=O)c1ccc2nc(Cc3ccc(OC)cc3)oc2c1 (stereo not drawn),16.8
23,Oc1ccc2ccccc2c1C=Nc1cc(C(F)(F)F)ccc1N1CCCC1,8.77

row,Structure (SMILES),"hERG current change (%, negative = inhibition) at 1uM [%]"
1,O=C1c2ccccc2C(=O)N1CC1CCCO1 (stereo not drawn),-0.0299
2,Nc1c(C(=O)O)cnn1-c1ccccc1,14.5
3,CCCCn1c(SCC(=O)OCC)nnc1-c1ccoc1C,8.45
4,NCCc1ccc(O)cc1,2.68
5,O=C(NCCN1CCOCC1)c1cc2ccccc2[nH]1,8.3
6,COc1cccc(C(=O)Nc2ccc(S(=O)(=O)Nc3onc(C)c3C)cc2)c1,21
7,COc1cccc(-c2nn(-c3ccccc3)cc2/C=C(\C#N)C(=O)NCCCn2ccnc2)c1,4.03
8,CCOc1ccc(NC(=O)C2CC(=O)N(Cc3ccco3)C2)cc1 (stereo not drawn),13.4
9,O=C(CN1C(=O)CCC1=O)NC(=O)NC1CCCC1,14.9
10,CCN(CC(=O)Nc1ccccc1C(F)(F)F)C(=O)/C=C/c1ccc(Cl)c([N+](=O)[O-])c1,19.9
11,CC1(C)Cc2ccccc2C(N/N=C/c2cccc(F)c2)=N1.Cl,2.6
12,CC(=O)Nc1ccc(S(=O)(=O)N2CCCCC2c2cccnc2)cc1 (stereo not drawn),12
13,CC/C(=C\C(=O)c1ccncc1)Nc1ccc(Br)cc1,-2.23
14,Cc1ccc(C)c(NC(=S)Nc2cccc3cnccc23)c1,8.56
15,Cc1ccc(C)c(OCCC(=O)OCC(=O)NC(=O)NCc2ccccc2)c1,3.7
16,COc1cc2nc(NC(=O)c3ccc(Cl)cc3)[nH]c(=O)c2cc1OC,12.3
17,Cc1ccc(N2CCN(C(=O)c3cc(COc4c(C)cccc4C)on3)CC2)c(C)c1,14.1
18,CC(=O)OCc1nc2ccccc2s1,6.71
19,CC1(C)CC(NC(=O)c2ccc3c(c2)OCO3)CC(C)(C)N1,11.9
20,CN1C(=O)N(C)C(=O)C2(Cc3cc(NC(=O)c4ccccc4Cl)ccc3N3CCCC32)C1=O (stereo not drawn),12.8
21,CC(=O)C1=C(O)C(=O)N(CCc2c[nH]c3ccccc23)C1c1ccccc1 (stereo not drawn),9.09

# — publication PMC4336329 (PLoS ONE, 2015)
